These results are taken from PubChem BioAssay (NCI).

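Growth conditions: 96-well plates. Treatment: test compound, 48 hours, 5 concentrations. Analysis: linear interpolation between bracketing concentrations; unreached endpoints set to highest concentration. GI50 is the concentration that inhibits growth by half. At the TGI there is no net growth.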

In general, TGI refers to the concentration at which net growth stops. A high value points to less potent growth arrest. By GI50 is commonly meant the concentration at which growth is held to half of that of the control.

For the test, the system named is NCI-H322M lung. Nature of the test: DTP human tumour cell line panel, 48 h.
Regarding `NNC(=O)CSc1nc2ccc(I)cc2c(=O)n1Cc1ccccc1`, the TGI turned out to be 61.9 µM.

Turning to `CC(=O)[C@@H]1[C@@H](OC(=O)CCC(C)COC2OC(CO)C(O)C(O)C2O)C[C@H]2[C@@H]3CC=C4C[C@@H](OC5OC(CO)C(OC6OC(C)C(O)C(O)C6O)C(O)C5OC5OC(C)C(O)C(O)C5O)CC[C@]4(C)[C@H]3CC[C@]12C` (stereo not given in full), the TGI was > 100 µM.

Regarding `C=CCN1CCC(OC(=O)C(O)(C#CC)C2CCCC2)CC1` (stereo not given), the TGI was > 100 µM.

With `O=C(Nc1c(O)[nH]c(=S)[nH]c1=O)c1ccccc1F`, the TGI is > 100 µM.

Take `COc1cccc2c1C(=O)C=CC2=O`: the TGI is 29.3 µM. This lies in the double-digit micromolar range.

For `Cc1c2c(c(C)n1-c1ccccc1)C(=O)N(CCCCN1CCN(c3ccccc3)CC1)C2=O`, the concentration for total growth inhibition (TGI) is > 100 µM.

Consider `O=C(O)C/C(=C\c1ccco1)C(=O)O`, for which the concentration for total growth inhibition (TGI) is > 100 µM.

`COC(=O)c1c2c(cc3c1CC1(Cc4cc5c(c(C=O)c4C1)CCCC5)C3)CCCC2` (stereo not given): the TGI is > 100 µM.

`CCNC(=O)[C@@H]1CCCN2C(=O)CC[C@H](NC(=O)[C@H](Cc3ccc(OP(=O)(O)O)cc3)NC(C)=O)C(=O)N12`: the GI50 was > 25 µM and the TGI is > 25 µM.

With `COc1cc2c[n+](C)c3c4cc(OC)c(OC)cc4c(OC)cc3c2cc1OC`, the TGI was > 100 µM.

For `COc1ccc2[nH]c(=O)c3c4ccccc4cn3c2c1`, the GI50 was 1.23 µM and the concentration for total growth inhibition (TGI) was found to be 7.92 µM.

Take `Clc1ncnc(Cl)c1Cl`: the TGI was > 100 µM.

For the molecule `Cc1ccccc1NC(=O)C(=O)C(C#N)c1ccc(Cl)cc1` (stereo not given), the TGI was > 100 µM.

Regarding `FC(F)(F)Oc1cccc(-c2cnc3ccc(-c4ccncc4)nn23)c1`, the GI50 is 1.44 µM and the TGI was > 100 µM.

Take `CC(=O)N[C@@H](Cc1ccc(OP(=O)(O)O)cc1)C(=O)N[C@H]1CCC(=O)N2CCC[C@@H](C(=O)NCc3ccc(Cl)cc3)N2C1=O`: the GI50 was > 25 µM and the concentration for total growth inhibition (TGI) is > 25 µM.

For `CC1(C)[C@H](C(=O)O)N2C(=O)[C@@H](NS(=O)(=O)c3ccc([N+](=O)[O-])cc3)[C@H]2S1(=O)=O`, the TGI was > 100 µM.

`COC1=C2CC(C)CC(OC)C(O)C(C)/C=C(\C)C(OC(N)=O)C(OC)/C=C\C=C(/C)C(=O)NC(=C(C=NC(C)(C)C)C1=O)C2=O` (stereo not given) came in with a TGI of 34.9 µM.

`CC(NS(=O)(=O)c1ccc([N+](=O)[O-])cc1)C(=O)O` (stereo not given): the TGI is > 100 µM.

As to `CC(=N\N)/C(C)=N/N=C(C)/C(C)=N/N=C(C)/C(C)=N/N=C(C)/C(C)=N/N`, the concentration for total growth inhibition (TGI) is > 100 µM.

Take `CC(=O)ON(C(C)=O)c1ccc(-c2nc3ccccc3s2)cc1`: the concentration for total growth inhibition (TGI) is > 100 µM.

With `COc1ccc(/C=C2\CCCC(CN(C)C)C2=O)cc1` (stereo not given), the total growth inhibition concentration (TGI) worked out at 30.6 µM. This counts as double-digit micromolar.

Consider `CC1CC(C)C(O)C(C2CC(CC(=O)NC3CCCCC3)CC(=O)O2)C1` (stereo not given), for which the TGI is > 100 µM.

As to `CCCCON(OC(=O)c1ccccc1)C(=O)c1ccccc1`, the GI50 is > 100 µM and the total growth inhibition concentration (TGI) is > 100 µM.

In the case of `ClCCCN(CCCCl)c1ccc(C=Nc2cccc(Cl)c2)cc1`, the TGI is > 100 µM.

For the molecule `CS/C(=N\C(=S)N(C)C)N(c1ccccc1)c1nc(=[N+](C)C)ss1`, the TGI was found to be 38 µM. This counts as double-digit micromolar.

On to `COc1ccc(/C=C2\CCC(C)C3=C(c4ccc(OC)c(OC)c4)C(C#N)=C(N)OC32)cc1OC` (stereo not given), for which the TGI was > 100 µM.

Regarding `CC(C)(C)OC(=O)NCCCCC(N)C(N)=O` (stereo not given), the TGI was > 100 µM.

As for `CCC(C#N)(c1ccccc1)N(CCc1ccccc1)C(=O)c1ccccc1` (stereo not given), the TGI was > 100 µM.

On to `O=P1(O)C=CC2(CCCC2)O1`, for which the concentration for total growth inhibition (TGI) is > 100 µM.

Take `COc1cc(C(=O)/C=C/c2c(C)n([O-])c3ccc(C)cc3[n+]2=O)cc(OC)c1OC`: the GI50 is 22.2 µM and the TGI amounted to 57.2 µM.

Regarding `CN=C(N)N/N=C(\C)c1ccc2c(c1)Cc1cc(/C(C)=N/NC(N)=NC)ccc1-2`, the GI50 was 1.98 µM and the TGI was 4.81 µM.

As for `CCOC(=O)c1c2c3c(cccc3[nH]c1=O)Sc1ncccc1-2`, the total growth inhibition concentration (TGI) was > 100 µM.

As for `O=P1(C(O)/C=C/c2ccccc2)N(Cc2ccccc2)[C@H](c2ccccc2)[C@@H](c2ccccc2)N1Cc1ccccc1` (stereo not given in full), the concentration for total growth inhibition (TGI) was > 100 µM.

As to `CCCCCC(C)(C)CCC(=O)OC1OC(COC2OC(COC3OC(CO)C(O)C(O)C3O)C(O)C(O)C2O)C(O)C(O)C1O` (stereo not given), the total growth inhibition concentration (TGI) was > 100 µM.

On to `CC(C)/C=C1\CCC(CN2CCCC2)C1=O` (stereo not given), for which the TGI was > 52.8 µM.

`N#Cc1c(N2CCCC2)nsc1NCc1ccccc1`: the total growth inhibition concentration (TGI) was > 100 µM.

As for `CCN(CC)CCOCC[C@H]1CC[C@H]2[C@@H]3[C@H](C)Cc4cc(OS(N)(=O)=O)ccc4[C@H]3CC[C@]12C`, the GI50 was 1.96 µM and the concentration for total growth inhibition (TGI) was found to be 5.74 µM.

In the case of `Cc1ccccc1C(=O)c1c(O)c2c(c(O)c1Br)CCCC2`, the TGI came out at 42.7 µM.

In the case of `CCc1nc(N)nc(N)c1-c1ccc(NCCN)c([N+](=O)[O-])c1`, the concentration for total growth inhibition (TGI) is > 100 µM.

As for `CC1CC(C2=CC=CCS2)=Nc2ccccc2S1` (stereo not given), the TGI is > 100 µM.

Consider `NC(Cc1ccc(S(=O)(=O)O)cc1)C(=O)NC(CCCCNC(=O)NCCCCC(NC(=O)C(N)Cc1ccc(S(=O)(=O)O)cc1)C(=O)NC(Cc1ccc(S(=O)(=O)O)cc1)C(=O)O)C(=O)NC(Cc1ccc(S(=O)(=O)O)cc1)C(=O)O` (stereo not given), for which the concentration for total growth inhibition (TGI) was > 100 µM.

For the molecule `CC(C)(C)NNC(=O)/C(=C/c1ccc([N+](=O)[O-])cc1)NC(=O)c1ccccc1`, the TGI was > 100 µM.

As to `C=C(C)C(=O)O[C@H]1C/C(CO)=C/CCC(=C)C(OC(C)=O)[C@H]2OC(=O)C(=C)[C@H]12` (stereo not given in full), the total growth inhibition concentration (TGI) is > 100 µM.

The molecule `C/C=C/[C@H]1O[C@@](O)([C@@H](C)[C@H](O)[C@H](C)[C@H]2OC(=O)/C(OC)=C/C(C)=C/[C@@H](C)[C@@H](O)[C@@H](CC)[C@@H](O)[C@H](C)C/C(C)=C/C=C/[C@@H]2OC)C[C@H](OC2CC(O)C(O)C(C)O2)[C@@H]1C` (stereo not given in full) displayed a TGI of 15.4 µM.

Take `CC1(C)CCC[C@@]2(C)C1CCC1(C)C(CCc3ccoc3)/C(=C/OS(=O)(=O)O)CCC12` (stereo not given in full) (tested in a mixture with another compound): the concentration for total growth inhibition (TGI) was > 100 µM.

`Oc1ccc(-c2csc(NNC3=NC/C(=C/c4ccc5c(c4)OCO5)S3)n2)cc1O`: the concentration for total growth inhibition (TGI) is > 100 µM.

As to `O=C(O)c1ccccc1NC(c1ccccc1)c1ccc2cccnc2c1O` (stereo not given), the total growth inhibition concentration (TGI) is > 76.9 µM.

On to `Cc1c(C#N)c2nnn(-c3ccc(Cl)cc3)c(=O)n2c1-c1ccccc1`, for which the TGI is > 86.2 µM.

`NCCSc1nc2ccccc2s1`: the TGI was > 100 µM.

`N#CN=C(N)c1sc2nc3c(c(-c4ccc(Br)cc4)c2c1N)CCCC3`: the TGI turned out to be 68.2 µM.

For the molecule `O=C1[C@@H]2C(c3ccccc3Br)=NO[C@@H]2C(=O)N1c1ccc(Cc2ccc(N3C(=O)[C@H]4C(c5ccccc5Br)=NO[C@H]4C3=O)cc2)cc1`, the TGI is > 100 µM.

For `C[N+](C)(C)CC1CCCC/C1=N\OC(=O)c1ccccc1` (stereo not given), the TGI was > 100 µM.

Take `CCOC(=O)c1ccc2[nH]c(-c3ccc(S(=O)(=O)F)cc3)cc(=O)c2c1`: the total growth inhibition concentration (TGI) was > 100 µM.

For `O=C(/C=C/c1ccc(OCCCOc2ccc(/C=C/C(=O)c3ccccc3)cc2)cc1)c1ccccc1`, the TGI was > 100 µM.

As for `FC(F)(F)c1nc(N2CCCC2)ncc1-c1nnnn1-c1ccc(Cl)cc1`, the GI50 is 41.2 µM and the TGI was > 100 µM.

For `CCOC(=O)NC(Nc1ncccn1)(C(F)(F)F)C(F)(F)F`, the TGI is > 100 µM.

`CC[C@]1(O)CC(OC2CC(N(C)C)C(O)C(C)O2)c2c(cc3c(c2O)C(=O)c2c(O)cccc2C3=O)[C@@H]1C(=O)OC` (stereo not given in full) came in with a concentration for total growth inhibition (TGI) of 3.56 µM.

The molecule `COc1c(C=O)c2c(c(OC)c1OC)-c1ccc(OC)c(=O)cc1[C@@H](NC(C)=O)CC2` returned a TGI of 9.89 µM. This TGI lies about 2.8-fold higher than the previous one.

Consider `O=C1OC[C@@H]2[C@@H](O)CCCCCN12`, for which the TGI is > 100 µM.

As for `CC(=O)NCCc1c2c(c3nccc4c3c1Nc1ccccc1-4)OCS2`, the GI50 is 3.28 µM and the concentration for total growth inhibition (TGI) was 14.8 µM.
